Hit rate of the full screen: of about 310,000 compounds, about 14,000 (4.5%) showed an effect of 50% or more. Effects have a minus sign here. Some of the results follow.
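Further: peak tail current of the secondary pulse compared with the same well before compound.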

The target of this experiment is human ether-à-go-go-related gene (hERG) potassium channel (human, UniProt Q12809). The experiment is described as follows: primary screen, population patch clamp on CHO cells stably expressing hERG.
human ether-à-go-go-related gene (hERG) potassium channel, sequence (Q12809 whole entry, looked up): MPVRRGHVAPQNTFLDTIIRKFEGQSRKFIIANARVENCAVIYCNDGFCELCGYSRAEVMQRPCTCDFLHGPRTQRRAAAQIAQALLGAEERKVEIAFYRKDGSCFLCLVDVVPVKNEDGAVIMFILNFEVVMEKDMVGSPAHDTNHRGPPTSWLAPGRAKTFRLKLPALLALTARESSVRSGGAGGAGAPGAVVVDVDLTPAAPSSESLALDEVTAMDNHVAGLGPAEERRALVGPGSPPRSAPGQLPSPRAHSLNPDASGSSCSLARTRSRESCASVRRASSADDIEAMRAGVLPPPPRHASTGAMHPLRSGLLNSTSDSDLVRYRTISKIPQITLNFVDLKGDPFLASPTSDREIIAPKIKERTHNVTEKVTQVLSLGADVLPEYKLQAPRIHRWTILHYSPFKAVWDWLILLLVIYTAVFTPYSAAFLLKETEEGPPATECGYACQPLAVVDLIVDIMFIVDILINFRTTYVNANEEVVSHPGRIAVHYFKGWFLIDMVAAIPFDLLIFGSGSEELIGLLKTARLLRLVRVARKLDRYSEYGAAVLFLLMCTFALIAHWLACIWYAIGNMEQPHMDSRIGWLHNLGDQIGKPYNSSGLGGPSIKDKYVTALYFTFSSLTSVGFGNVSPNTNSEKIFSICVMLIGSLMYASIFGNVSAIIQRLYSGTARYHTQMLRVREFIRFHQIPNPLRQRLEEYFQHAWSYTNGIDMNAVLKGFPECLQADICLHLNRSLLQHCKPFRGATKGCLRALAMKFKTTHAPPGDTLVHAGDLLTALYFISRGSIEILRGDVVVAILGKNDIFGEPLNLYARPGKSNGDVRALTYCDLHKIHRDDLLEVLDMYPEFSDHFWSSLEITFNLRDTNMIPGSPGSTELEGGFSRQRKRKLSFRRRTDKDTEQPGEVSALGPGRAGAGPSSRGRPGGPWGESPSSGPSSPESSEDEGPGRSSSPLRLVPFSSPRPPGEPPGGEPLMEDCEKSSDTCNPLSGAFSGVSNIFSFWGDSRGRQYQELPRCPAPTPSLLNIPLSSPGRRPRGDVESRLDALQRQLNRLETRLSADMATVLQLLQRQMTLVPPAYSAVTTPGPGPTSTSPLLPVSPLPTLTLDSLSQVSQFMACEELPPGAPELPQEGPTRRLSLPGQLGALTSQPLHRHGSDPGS
Consider `COc1cccc(CN(C)C(=O)CNC(=O)c2ccc(-c3ccccc3)cc2)c1OC`, for which the “hERG current change (%, negative = inhibition) at 10uM” value was determined as 11.8%.
The figure for `Cc1noc(C)c1CN1C(=O)NC(Cc2ccccc2)(Cc2ccccc2)C1=O` is 5.69%.
The figure for `COc1ccc(N(C(=O)CNC(=O)c2cccs2)C(C(=O)NC2CCCC2)c2cccnc2)cc1` (stereo not drawn) is -13%.
Regarding `O=C(Cc1ccc(Cl)cc1)Nc1ccc(CN2CCCCC2)cc1`, the “hERG current change (%, negative = inhibition) at 10uM” value is on record as -64.9%.
Regarding `O=C(O)Cn1c(-c2ccccn2)nc2ccccc21`, the “hERG current change (%, negative = inhibition) at 10uM” value worked out at 3.16%.
For `CC(C)Nc1nc(NC(C)C)nc(C(N)=O)n1`, the “hERG current change (%, negative = inhibition) at 10uM” value stood at 0.0144%.
To `COc1ccc(CNC(=O)N2CCN(c3ccc(F)cc3)CC2)cc1Cl` belongs -26.1%.
With `OC(Cn1cncn1)c1ccc(Cl)cc1` (stereo not drawn), the “hERG current change (%, negative = inhibition) at 10uM” value is recorded as -1.11%.
The figure for `CC1CCc2cc(F)ccc2N1C(=O)c1cc2nc(-c3ccco3)cc(C(F)(F)F)n2n1` (stereo not drawn) is 13.4%; for `C=C(C)CN(CC)C(=O)CCc1nnc(CCCc2ccccc2)o1` it is 7.19%.
The figure for `CCN(CC)c1ccc(/C=N/NC(=S)NCc2ccccc2)cc1` is 9.47%.
In the case of `CCOc1ccc(S(=O)(=O)Nc2ccccc2C(=O)N/N=C/c2c(OC)ccc3ccccc23)cc1`, the “hERG current change (%, negative = inhibition) at 10uM” value is given as -4.19%.
In the case of `COC(=O)c1ccc(C(C(=O)NC2CCCCC2)N(Cc2ccccc2)C(=O)Cc2cccs2)cc1` (stereo not drawn), the “hERG current change (%, negative = inhibition) at 10uM” value was -6.56%.
For `CCOC(=O)c1cccc(NC(=O)N[C@@H](C)C(=O)OC)c1`, the “hERG current change (%, negative = inhibition) at 10uM” value came to 9.63%.
Regarding `CC(=O)Nc1ccc(S(=O)(=O)NCCC(=O)Nc2ccc(C)cn2)cc1`, the “hERG current change (%, negative = inhibition) at 10uM” value came out at 20.6%.
In the case of `O=C(CNc1cc(S(=O)(=O)N2CCCC2)ccc1OCC(F)(F)F)Nc1cc(Cl)cc(Cl)c1`, the “hERG current change (%, negative = inhibition) at 10uM” value is given as 6.5%.
Take `CCN(CC)CCN=CC1=C(O)CNC1=O`: the “hERG current change (%, negative = inhibition) at 10uM” value was found to be 5.31%.
For the molecule `Cc1ccc(Cn2c(NCCc3ccccc3)nc3c2c(=O)n(C)c(=O)n3C)cc1`, the “hERG current change (%, negative = inhibition) at 10uM” value is 2.68%.
The figure for `CCOc1ccc(C2N(c3ccc(Cl)cc3)C(=O)C3CCCN32)cc1OC` (stereo not drawn) is -20%; for `CCS(=O)(=O)Nc1ccc(-c2ccc(NS(=O)(=O)CC)c(OC)c2)cc1OC` it is 0.884%.
For the molecule `CCC(C)c1ccc(NC(=O)c2cccnc2)cc1` (stereo not drawn), the “hERG current change (%, negative = inhibition) at 10uM” value is -8.68%.
For `CCc1ccc(-c2cc(C)no2)cc1S(=O)(=O)N1CCN(c2ccccn2)CC1`, the “hERG current change (%, negative = inhibition) at 10uM” value stood at 4.29%.
As to `CCOC(=O)C1=C(C)N=c2s/c(=C\c3ccc(OCC(=O)O)cc3)c(=O)n2C1c1ccccc1` (stereo not drawn), the “hERG current change (%, negative = inhibition) at 10uM” value was -3.34%.
`CCOc1c(C)cnc2c1c(=O)n(Cc1c(F)cccc1Cl)c(=O)n2C`: the “hERG current change (%, negative = inhibition) at 10uM” value is -7.37%.
For `O=C(COc1ccccc1)N1CCN(c2ncnc3c2cnn3-c2ccccc2)CC1`, the “hERG current change (%, negative = inhibition) at 10uM” value is -73.6%.
To `CC(=O)c1ccc(S(=O)(=O)N2CCC(c3nnc(SCCN4CCCC4)n3C)CC2)cc1` belongs 11.6%.
Regarding `CCCOc1ccc(N2C(=O)CC(N(CCCO)C(=O)CC)C2=O)cc1` (stereo not drawn), the “hERG current change (%, negative = inhibition) at 10uM” value is given as 18.4%.
The figure for `COc1ccc(C)cc1NC(=O)Nc1ccncc1` is 6.61%.
To `COC(=O)Cc1c(C)c2ccc(OCC(=O)NCc3ccc4c(c3)OCO4)cc2oc1=O` belongs 11.5%; to `COCCN(CC(=O)Nc1cccc(C)c1C)C(=O)CN1C(=O)NC2(CCCCC2)C1=O`, 13.8%; to `CC(=O)c1c(N2CCCCC2)nc(=S)n(-c2ccccc2)c1C`, 11.5%.
The figure for `CCc1cc(CNC(=O)CC2C(=O)NCCN2Cc2ccc(-c3ccccc3)cc2)on1` (stereo not drawn) is -28.4%; for `CCC(C)C(Nc1ccc(C(=O)OC)cc1[N+](=O)[O-])C(=O)OC` (stereo not drawn) it is -4.92%; for `CN1C(C(=O)NCC2CC2)CC2Cn3c(nc4cc5ccccc5cc43)C21` (stereo not drawn) it is -21.2%.
For the molecule `O=C(NCc1cc(C(F)(F)F)cc(C(F)(F)F)c1)C1CC(c2ccccc2F)=NO1` (stereo not drawn), the “hERG current change (%, negative = inhibition) at 10uM” value was found to be 7.64%.
The figure for `CCCCn1c(SCC(=O)NC(C)CC)nc2ccc(N3CCOCC3)cc2c1=O` (stereo not drawn) is -12.8%; for `N#Cc1ccccc1CN1C(=O)S/C(=C/c2cccn2-c2cccc(C(=O)O)c2)C1=O` it is 3.87%; for `CC(=O)c1cccc(NC(=O)N2C[C@H]3C[C@@H](C2)c2cccc(=O)n2C3)c1` it is 2.1%.
Take `Cc1ccc2c(c1)COc1c3ccc(C(=O)N4CCOCC4)cc3nn1-2`: the “hERG current change (%, negative = inhibition) at 10uM” value was -10.9%.
`CON(C)S(=O)(=O)c1cccc(C(=O)NC2CCSc3ccccc32)c1` (stereo not drawn): the “hERG current change (%, negative = inhibition) at 10uM” value is given as -9.64%.
The figure for `O=c1[nH]c(=S)[nH]cc1S(=O)(=O)c1cccc(Cl)c1` is 7.48%; for `O=C(COc1ccccc1F)NC12CC3CC(CC(C3)C1)C2` it is -11.8%; for `CCN(C(=O)COC(=O)c1cncc(Br)c1)C1CCS(=O)(=O)C1` (stereo not drawn) it is 29.4%.
To `O=c1ccnc2n1COCS2` belongs 4.62%; to `CCc1nnc(NC(=O)CCC(=O)NCc2ccc(OC)cc2)s1`, -1.92%.
`COc1ccccc1CNC(=O)c1ccc(CS(=O)(=O)c2ccc(C)cc2)o1`: the “hERG current change (%, negative = inhibition) at 10uM” value is recorded as -23.6%.
For `Cl.NC(=NCCc1ccccc1)c1cccc([N+](=O)[O-])c1`, the “hERG current change (%, negative = inhibition) at 10uM” value is -57.7%.
To `CCS(=O)(=O)c1ccc(O)c(NC(=O)COc2ccc(Br)cc2)c1` belongs -3.73%; to `CSCCC(NC(=O)c1ccc(Cl)cc1)C(=O)OCC(=O)Nc1ccc(C#N)cc1` (stereo not drawn), -34.2%; to `CCc1ccccc1OCCCCN1CCCCC1.O=C(O)C(=O)O`, -30%.
To `Cc1cccc(C(=O)Nc2cc(NC(=O)c3cccs3)ccc2C)c1` belongs 8.96%; to `Cc1ccc(NC(=O)CSC(C)c2nc3ccccc3c(=O)[nH]2)cc1` (stereo not drawn), 12.1%.
Consider `CCSc1ncc(Cl)c(C(=O)Nc2ccccc2OC)n1`, for which the “hERG current change (%, negative = inhibition) at 10uM” value worked out at 19%.
`COc1ccc(CN(C(=O)/C=C/C(=O)c2ccc(OC)cc2O)C(C(=O)NC2CCCCC2)c2ccncc2)cc1` (stereo not drawn): the “hERG current change (%, negative = inhibition) at 10uM” value was -13.2%.
On to `Cc1ccc(Oc2ccc(/C=N/O)cn2)cc1`, for which the “hERG current change (%, negative = inhibition) at 10uM” value was -1.45%.
`COc1ccc(NC(=O)CS(=O)c2cccc(Cl)c2)cc1` (stereo not drawn): the “hERG current change (%, negative = inhibition) at 10uM” value is reported as -3.23%.
Consider `COc1ccc(S(=O)(=O)Nc2ccccc2C(=O)NCc2cccnc2)cc1OC`, for which the “hERG current change (%, negative = inhibition) at 10uM” value came out at 3.07%.
The figure for `CCC(=O)N(Cc1cc(=O)[nH]c2ccccc12)c1ccc(C)cc1` is -39.3%; for `COc1ccc(/C=C2\SC(=O)N(CCC(=O)NC3CCS(=O)(=O)C3)C2=O)cc1` (stereo not drawn) it is 5.13%; for `COC(=O)c1cc2c(=O)n3ccccc3nc2n(Cc2cccnc2)c1=N` it is -64%.
The figure for `Cc1ccc(Oc2nc(CN3CCOCC3)nc3sc4c(c23)CCC(C)C4)cc1C` (stereo not drawn) is 7.99%; for `COc1ccccc1CC(=O)N1CCOCC1` it is 21%.
The figure for `C=CCN=C1CC(C)(C)CC(=O)/C1=C(\O)CCCN1C(=O)c2ccccc2C1=O` is -23.5%.
`O=C(N/N=C/c1cccc(O)c1)c1cc(C2CC2)nc2ccccc12`: the “hERG current change (%, negative = inhibition) at 10uM” value is 1.18%.
As for `Cc1nc2ccccc2c(=O)n1NC(=O)c1ccc([N+](=O)[O-])cc1Cl`, the “hERG current change (%, negative = inhibition) at 10uM” value was -14.8%.
To `O=C(O)CSC(C(=O)Nc1ccc(Br)cc1)c1ccc(Cl)cc1` (stereo not drawn) belongs 15.3%.
Take `Cc1ccc(C)c(NC(=S)NNC(=O)c2sccc2C)c1`: the “hERG current change (%, negative = inhibition) at 10uM” value is reported as -1.62%.
The figure for `CCO[C@@H]1OC(C(=O)NCc2ccccc2)=C[C@H](c2ccc(C(F)(F)F)cc2)[C@H]1CCCO` is -38.9%.
The figure for `CCOC(=O)C[C@H]1c2ccc(C(F)(F)F)cc2S(=O)(=O)N1Cc1ccccc1` is -28.8%.
As to `C[C@H]1CN=C(Nc2ccccc2)N1CCCC1CCCCC1`, the “hERG current change (%, negative = inhibition) at 10uM” value was -62.2%.
To `O=C(C1CC(=O)N(C2CCCC2)C1)N1CCC(Cc2ccccc2)CC1` (stereo not drawn) belongs -24.4%; to `CCOc1ccccc1CN1CCNC(=O)C1CC(=O)NCc1nc(C)cs1` (stereo not drawn), -28.1%; to `O=C(NC(=S)NC(CO)Cc1ccccc1)c1ccc(F)cc1` (stereo not drawn), 10.2%.
`O=C(Nc1ccccc1)c1ccccc1NC(=O)[C@H]1CCCC[C@H]1C(=O)O`: the “hERG current change (%, negative = inhibition) at 10uM” value is recorded as 18.8%.
The figure for `Cc1cc(C(=O)Nc2ccccc2)c2ccccc2n1` is 12.2%; for `COCCNC(=S)Nc1ccc(N2CCCCC2)cc1` it is 0.421%; for `COc1ccc(N2CC(C(=O)N3CCN(c4ccccc4F)CC3)CC2=O)cc1` (stereo not drawn) it is -29.3%.
`Clc1ccccc1Sc1cnc2ccccc2n1`: the “hERG current change (%, negative = inhibition) at 10uM” value is -23.4%.
The figure for `Cc1ccc(CSCC2Nc3ccc(C(=O)N4CCN(c5ccc(F)cc5)CC4)cc3NC2=O)cc1` (stereo not drawn) is 16.5%; for `CCOc1ccc(OCC)c(S(=O)(=O)n2cnc(C)c2)c1` it is 4.89%; for `CCNc1nc(NC(C)C)nc(Oc2ccc(OCc3ccccc3)nn2)n1` it is -9.37%.
The figure for `COc1ccc(-c2ccc3nnc(SCC(=O)Nc4ccc(NC(C)=O)cc4)n3n2)cc1` is 6.82%; for `CCCCCCC12CCC(C(=O)O)(CC1)CC2` it is -5.84%.
Turning to `CNC(=S)NNC(=O)c1oc2nc(-c3ccccc3)cc(C)c2c1N`, the “hERG current change (%, negative = inhibition) at 10uM” value was -33.2%.
To `COc1ccc(CC(=O)NC(=S)NNC(=O)COc2c(C)cccc2C)cc1` belongs 6.52%; to `O=C(NCc1ccco1)c1cc(-c2cccs2)nc2ccccc12`, -1.68%; to `O=C(O)CCC1COc2ccccc2O1` (stereo not drawn), 15.6%.

(Values after article PMC4336329 (PLoS ONE, 2015).)
